Key:
[1] = Pharmacokinetics in plasma and PELF of healthy pigs after intramuscular injection; conditions: for AUC(0-t) / Cmax / MRT last / Tmax: pig, in vivo, im, n = 6; for AUC(0-t): AUC 24h; for MRT last: MRT 24h
Protocol: (§1) Twenty-four pigs were randomly divided into 4 groups with 3 healthy groups and 1 infected group. […] The infected group was infected with G. parasuis H78 for 3 days.
(§2) Add 3 mL of a mixture of dichloromethane and acetonitrile, and vortex centrifuge for 5 min at 10,000 rpm for 10 min. Remove the supernatant into a 10 mL centrifuge tube. Add 3 mL of dichloromethane and acetonitrile to the residue. Extract once again as described above. Combine the supernatant twice, and dissolve the residue with 1 mL of the initial mobile phase. Vortex to mix. Add 1 mL of n-hexane, remove the n-hexane layer (upper layer) to achieve the purpose of degreasing, and then use a 0.22-μm filter membrane to obtain a sample purification solution.
(§3) A C18 reverse phase column (250 mm × 4.6 mm, i.d., 5 µm, Agilent, Santa Clara, CA, USA) was used for HPLC, which was executed at a detection wavelength of 270 nm at 25 °C. The mobile phase comprised 0.1% trifluoroacetic acid (phase A) and 100% methanol (phase C) with a mobile phase flow rate of 1 mL/min.
(§4) The urea dilution method was used to determine the volume of PELF as described previously. The concentration of urea and PELF were determined by the urease-glutamate dehydrogenase enzymatic method with an automatic biochemical analyzer (SYNCHRON CX4 PRO; Beckman, Brea, CA, USA) at the National Reference Laboratory of Veterinary Drug Residues (Wuhan, China).

[2] = Pharmacokinetics in plasma and PELF of pigs infected with G. parasuis H78 after intramuscular injection; conditions: pig, in vivo, im; for AUC(0-t): AUC 24h; for AUC(0-t) / Cmax / MRT last / Tmax: infected group, ADP/SMZ injection 5/25 mg/kg b.w. i.m., n = 6; for MRT last: MRT 24h
Protocol: as §1, §2, §3, §4

G. parasuis H78 = experiment: PK-PD integration, sigmoid Emax model on ex vivo time killing in PELF; format: cell-based, Glaesserella parasuis; conditions: ADP/SMZ injection 5/25 mg/kg b.w. i.m.
Protocol: The association between antimicrobial efficiency and the ex vivo PK-PD parameters of AUC0−24h/MIC ratios was simulated by using the model of Emax inhibitory Sigmoid.

[3] = PELF, healthy group, ADP/SMZ injection 5/25 mg/kg b.w. i.m.
[4] = PELF, healthy pigs, single drug i.m.: ADP 5 mg/kg b.w., SMZ 25 mg/kg b.w.
[5] = plasma, healthy group, ADP/SMZ injection 5/25 mg/kg b.w. i.m.
[6] = plasma, healthy pigs, single drug i.m.: ADP 5 mg/kg b.w., SMZ 25 mg/kg b.w.

## Cc1cc(NS(=O)(=O)c2ccc(N)cc2)no1 [SMZ, Sulfamethoxazole, reference compound]
[1]; LOD 0.05 µg/mL, HPLC
  concentration in PELF after 36 h: below LOD
  concentration in plasma after 24 h: below LOD
[1]; [3]
  AUC(0-t): 163 ± 12.5 µg·h/mL
  Cmax: 25400 ± 2510 ng/mL
  MRT last: 7.78 ± 0.17 h
  Tmax: 2.04 ± 0.08 h
[1]; [4]
  AUC(0-t): 199 ± 10.1 µg·h/mL
  Cmax: 23400 ± 2580 ng/mL
  MRT last: 6.42 ± 0.15 h
  Tmax: 2 h
[1]; [5]
  AUC(0-t): 121 ± 10.2 µg·h/mL
  Cmax: 15700 ± 1740 ng/mL
  MRT last: 6.55 ± 0.12 h
  Tmax: 2 h
[1]; [6]
  AUC(0-t): 103 ± 8.25 µg·h/mL
  Cmax: 12600 ± 1320 ng/mL
  MRT last: 6.13 ± 0.12 h
  Tmax: 3 h
[2]
  T 1/2λ: 8.29 ± 0.81 h
[2]; PELF
  AUC(0-t): 166 ± 12.7 µg·h/mL
  Cmax: 26400 ± 2040 ng/mL
  MRT last: 7.74 ± 0.23 h
  Tmax: 2.07 ± 0.03 h
[2]; plasma
  AUC(0-t): 124 ± 7.11 µg·h/mL
  Cmax: 16000 ± 1520 ng/mL
  MRT last: 6.48 ± 0.15 h
  Tmax: 2 h
G. parasuis H78; healthy group
  (AUC24h/MIC)ex (E = 0): 18.23 h
  (AUC24h/MIC)ex (E = −3): 64.88 h
  (AUC24h/MIC)ex (E = −4): 161.81 h
  EC 50 (AUC0−24h/MIC giving 50% of Emax): 27.64 h
G. parasuis H78; infected group
  (AUC24h/MIC)ex (E = 0): 17.81 h
  (AUC24h/MIC)ex (E = −3): 62.04 h
  (AUC24h/MIC)ex (E = −4): 137.28 h
  EC 50 (AUC0−24h/MIC giving 50% of Emax): 27.43 h
